Experimental data from the supplement of paper PMC12217912.
The list shows a part of the results. The full chains were built here from the parent and the listed change. Values near 0.05 are background.

B1: TEV protease; numbered along this chain (parent)
chain: MGESLFKGPRDYNPISSSICHLTNESDGHTTSLYGIGFGPFIITNKHLFRRNNGTLVVQSLHGVFKVKDTTTLQQHLVDGRDMIIIRMPKDFPPFPQKLKFREPQREERICLVTTNFQTKSMSSMVSDTSCTFPSGDGIFWKHWIQTKDGQCGSPLVSTRDGFIVGIHSASNFTNTNNYFTSVPKNFMELLTNQEAQQWVSGWRLNADSVLWGGHKVFMVKPEEPFQPVKEATQL

Variants of: B1
Experiment: raw area under fraction-flipped curve 0-4 h after induction (AUC4h, not background-subtracted), DNA-recorder readout of cleavage of the substrate (dimensionless); higher = more cleavage of the substrate by the protease variant
Conditions: temperature: 34 °C; time window: 0-4 h after rhamnose induction
Experimental: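 In vivo DNA recorder in E. coli TOP10(DE3) ΔrhaA at 34 °C. Each TEVp single-site mutant (parent TEVp 0) is paired with a single-site variant of the 7-mer TEVs (canonical ENLYFQ|S). The substrate sits between flexible linkers in a Bxb1-sfGFP-TEVs-SsrA fusion, so cleavage stabilises Bxb1 and speeds flipping of a recombination array, read by NGS. The value is the raw area under the fraction-flipped curve over 0-4 h after rhamnose induction (AUC4h), with ≥20 reads per time point. It is not background-subtracted; inactive controls average about 0.047.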
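Also: Bxb1 expression induced with 0.2% (w/v) L-rhamnose at OD600 near 0.5, cultures sampled hourly, flipped fraction per protease–substrate barcode pair counted by paired-end Illumina sequencing.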

| Variant | area with substrate ENAYFQS | area with substrate ENCYFQS | area with substrate ENDYFQS | area with substrate ENEYFQS | area with substrate ENFYFQS | area with substrate ENGYFQS | area with substrate ENKYFQS | area with substrate ENMYFQS | area with substrate ENNYFQS | area with substrate ENPYFQS | area with substrate ENQYFQS | area with substrate ENRYFQS | area with substrate ENSYFQS | area with substrate ENTYFQS | area with substrate ENVYFQS | area with substrate ENWYFQS | area with substrate ENYYFQS | area with substrate ENIYFQS | area with substrate ENHYFQS |
| --- | --- | --- | --- | --- | --- | --- | --- | --- | --- | --- | --- | --- | --- | --- | --- | --- | --- | --- | --- |
| MGESLFKGPRDYNPISSSICHRTNESDGHTTSLYGIGFGPFIITNKHLFRRNNGTLVVQSLHGVFKVKDTTTLQQHLVDGRDMIIIRMPKDFPPFPQKLKFREPQREERICLVTTNFQTKSMSSMVSDTSCTFPSGDGIFWKHWIQTKDGQCGSPLVSTRDGFIVGIHSASNFTNTNNYFTSVPKNFMELLTNQEAQQWVSGWRLNADSVLWGGHKVFMVKPEEPFQPVKEATQL [L22R] | 0.0432 | 0.0456 | 0.0495 | 0.0464 | 0.0452 | 0.0517 | 0.0459 | 0.101 | 0.039 | 0.0497 | 0.0433 | 0.0467 | 0.0522 | 0.0455 | 0.039 | 0.0345 | 0.0413 |  |  |
| MGESLFKGPRDYNPISSSICHTTNESDGHTTSLYGIGFGPFIITNKHLFRRNNGTLVVQSLHGVFKVKDTTTLQQHLVDGRDMIIIRMPKDFPPFPQKLKFREPQREERICLVTTNFQTKSMSSMVSDTSCTFPSGDGIFWKHWIQTKDGQCGSPLVSTRDGFIVGIHSASNFTNTNNYFTSVPKNFMELLTNQEAQQWVSGWRLNADSVLWGGHKVFMVKPEEPFQPVKEATQL [L22T] | 0.0373 |  | 0.021 | 0.046 | 0.056 | 0.05 | 0.0494 | 0.0459 | 0.0458 | 0.0601 | 0.0486 | 0.054 | 0.0507 |  | 0.0474 |  | 0.0559 | 0.0287 |  |
| MGESLFKGPRDYNPISSSICHLTLESDGHTTSLYGIGFGPFIITNKHLFRRNNGTLVVQSLHGVFKVKDTTTLQQHLVDGRDMIIIRMPKDFPPFPQKLKFREPQREERICLVTTNFQTKSMSSMVSDTSCTFPSGDGIFWKHWIQTKDGQCGSPLVSTRDGFIVGIHSASNFTNTNNYFTSVPKNFMELLTNQEAQQWVSGWRLNADSVLWGGHKVFMVKPEEPFQPVKEATQL [N24L] | 0.0662 | 0.0698 | 0.0695 | 0.0663 | 0.057 | 0.0714 | 0.0592 | 0.0979 | 0.0583 |  | 0.0647 | 0.0696 | 0.0561 | 0.0797 | 0.0755 | 0.0069 | 0.0577 | 0.107 | 0.0652 |
| MGESLFKGPRDYNPISSSICHLTNQSDGHTTSLYGIGFGPFIITNKHLFRRNNGTLVVQSLHGVFKVKDTTTLQQHLVDGRDMIIIRMPKDFPPFPQKLKFREPQREERICLVTTNFQTKSMSSMVSDTSCTFPSGDGIFWKHWIQTKDGQCGSPLVSTRDGFIVGIHSASNFTNTNNYFTSVPKNFMELLTNQEAQQWVSGWRLNADSVLWGGHKVFMVKPEEPFQPVKEATQL [E25Q] | 0.0682 | 0.0726 | 0.0645 | 0.0628 | 0.0347 | 0.0489 | 0.0526 |  | 0.0802 | 0.0763 | 0.0587 | 0.057 | 0.0724 | 0.0761 | 0.0881 | 0.0061 | 0.0487 |  |  |
| MGESLFKGPRDYNPISSSICHLTNTSDGHTTSLYGIGFGPFIITNKHLFRRNNGTLVVQSLHGVFKVKDTTTLQQHLVDGRDMIIIRMPKDFPPFPQKLKFREPQREERICLVTTNFQTKSMSSMVSDTSCTFPSGDGIFWKHWIQTKDGQCGSPLVSTRDGFIVGIHSASNFTNTNNYFTSVPKNFMELLTNQEAQQWVSGWRLNADSVLWGGHKVFMVKPEEPFQPVKEATQL [E25T] | 0.0667 | 0.0653 | 0.0571 | 0.0643 |  | 0.0507 | 0.0511 | 0.0842 |  | 0.062 |  | 0.0508 | 0.0578 | 0.0599 | 0.0791 |  |  |  | 0.0695 |
| MGESLFKGPRDYNPISSSICHLTNESTGHTTSLYGIGFGPFIITNKHLFRRNNGTLVVQSLHGVFKVKDTTTLQQHLVDGRDMIIIRMPKDFPPFPQKLKFREPQREERICLVTTNFQTKSMSSMVSDTSCTFPSGDGIFWKHWIQTKDGQCGSPLVSTRDGFIVGIHSASNFTNTNNYFTSVPKNFMELLTNQEAQQWVSGWRLNADSVLWGGHKVFMVKPEEPFQPVKEATQL [D27T] | 0.0586 | 0.0682 | 0.0504 | 0.0658 | 0.0641 | 0.0637 |  | 0.0587 | 0.0646 | 0.0732 | 0.064 | 0.0648 | 0.0678 | 0.0204 | 0.0648 | 0.0077 |  |  | 0.0608 |
| MGESLFKGPRDYNPISSSICHLTNESDAHTTSLYGIGFGPFIITNKHLFRRNNGTLVVQSLHGVFKVKDTTTLQQHLVDGRDMIIIRMPKDFPPFPQKLKFREPQREERICLVTTNFQTKSMSSMVSDTSCTFPSGDGIFWKHWIQTKDGQCGSPLVSTRDGFIVGIHSASNFTNTNNYFTSVPKNFMELLTNQEAQQWVSGWRLNADSVLWGGHKVFMVKPEEPFQPVKEATQL [G28A] | 0.0521 | 0.0521 | 0.0576 | 0.0578 | 0.0592 | 0.0624 | 0.0524 | 0.0541 | 0.0618 | 0.0538 | 0.0525 | 0.0667 | 0.0846 |  | 0.0683 |  | 0.0563 |  | 0.0492 |
| MGESLFKGPRDYNPISSSICHLTNESDNHTTSLYGIGFGPFIITNKHLFRRNNGTLVVQSLHGVFKVKDTTTLQQHLVDGRDMIIIRMPKDFPPFPQKLKFREPQREERICLVTTNFQTKSMSSMVSDTSCTFPSGDGIFWKHWIQTKDGQCGSPLVSTRDGFIVGIHSASNFTNTNNYFTSVPKNFMELLTNQEAQQWVSGWRLNADSVLWGGHKVFMVKPEEPFQPVKEATQL [G28N] | 0.0586 | 0.0603 | 0.0475 |  |  |  | 0.0751 |  | 0.0669 | 0.0526 | 0.0443 | 0.0793 | 0.0596 |  | 0.0778 |  | 0.0515 |  | 0.0614 |
